Consider 86 compounds from ChEMBL document CHEMBL4888484, “Replenishing the malaria drug discovery pipeline: Screening and hit evaluation of the MMV Hit Generation Library 1 (HGL1) against asexual blood stage Plasmodium falciparum ,using a nano luciferase reporter read-out” (2022).

The whole screen tested about 150,000 compounds, of which about 540 (0.36%) showed an effect of 50% or more. This is one part of the list.

This assay deals with Plasmodium falciparum. Kind of assay: Primary screen in NF54 nanoGlo assay, in single point, at 2uM, 72h; a lower Z score goes with more inhibition. Format: functional, Erythrocyte. To be noted: timepoint 72 hour.
Usually % Inhibition stands for the change of the read-out against control, counted positive when it falls. For the compound `O=C(NCc1nnc2n1CCC2)C1CC2CCC1C2` (configuration not stated), the “% Inhibition” value was -1% and the Z score is 0.18.
For the compound `CCC(NS(=O)(=O)c1ccco1)C(O)C(F)(F)F` (configuration not stated), the “% Inhibition” value was 3% and the Z score is -0.59.
On to `O=C(Nc1ccccc1OCc1ccccc1)c1ccco1`, for which the “% Inhibition” value was -8% and the Z score was determined as 0.73.
In the same order, the values of `Cc1nnc(CNC(=O)c2cccc(CN3CCCCCC3)c2)o1` are -6% and 1.08.
In the same order, the values of `O=C(c1ccc2noc(-c3ccc(F)cc3)c2c1)N1CCN(c2cccc(Cl)c2)CC1` are 2% and -0.21.
Consider `O=S(=O)(Cc1cnn(-c2ccccc2)c1)c1cccs1`, for which the “% Inhibition” value stood at 0% and the Z score was -0.02.
In the same order, the values of `C[C@H](NC(=O)c1ccn2ccnc2c1)c1ccc(OC(F)(F)F)cc1` are -12% and 1.48.
For `CN1CCN(Cc2n[nH]c(=O)n2Cc2ccc(Cl)cc2)CC1`, the “% Inhibition” value is given as -14% and the Z score came to 2.61.
For the compound `O=C(Nc1onc2c1CCC2)[C@@H]1COc2ccccc2O1`, the “% Inhibition” value was found to be 12% and the Z score was -1.65.
Take `O=C(c1cc(-n2ccnc2)ccn1)N1CCC(Cc2ccccc2)CC1`: the “% Inhibition” value was -10% and the Z score is recorded as 1.77.
For `C[C@H](O)CN1CCN(C(=O)c2ccccc2-c2ccccc2)CC1`, in that order: -4% and 0.78.
For `CC1=NN(c2ccc(C)cc2C)C(=O)C1C(c1cccc(O)c1)C1C(=O)N(c2ccc(C)cc2C)N=C1C` (configuration not stated), in that order: -26% and 3.01.
In the same order, the values of `CC(C)(C(=O)N1CCC[C@H](S(C)(=O)=O)CC1)N1CCOCC1` are -9% and 1.31.
With `CCc1nccn1CCc1nc(C)nn1C(C)(C)C`, the “% Inhibition” value stood at 2% and the Z score was -0.36.
For `O=C(Nc1cc[nH]n1)[C@H]1CCCN(S(=O)(=O)Cc2ccccc2)C1`, in that order: -11% and 1.53.
With `Cc1csc(C(NC(C)CC(=O)N2CCCCCC2)C2CC2)n1` (configuration not stated), the “% Inhibition” value is recorded as -6% and the Z score came out at 0.89.
Take `Cc1ccc(-n2nc(C)c3c(C)cc(OCc4ccc5nonc5c4)nc32)cc1`: the “% Inhibition” value came out at 13% and the Z score is recorded as -1.28.
In the case of `O=C(CN1C(=O)c2ccccc2C1=O)N1CCN(c2cc3c(nn2)CCC3)CC1`, the “% Inhibition” value is recorded as -9% and the Z score was 1.66.
For `CN(C)c1ccc(C(=O)N2CCC[C@]3(C4=CCOCC4)COCC[C@@H]23)cc1`, in that order: -17% and 2.19.
In the same order, the values of `O=C(c1ccn2c(-c3cccc(Cl)c3)nnc2c1)N1CCN(c2ccccn2)CC1` are 4% and -0.49.
As for `c1ccc(-n2nc(C3CCOCC3)nc2[C@H]2CCCN2)cc1`, the “% Inhibition” value was determined as 6% and the Z score is recorded as -1.09.
`CNS(=O)(=O)c1cc(C(=O)N2CCCN(CC(=O)N(C)C)CC2)cc(C)c1C`: the “% Inhibition” value is -6% and the Z score worked out at 0.82.
Turning to `Cc1cccc(-c2cc(N3CCC(C(=O)Nc4cccc5ccccc45)CC3)ncn2)c1`, the “% Inhibition” value is recorded as -9% and the Z score is 1.7.
In the same order, the values of `CC(NC(=O)CCC(O)c1ccc(C(C)(C)C)cc1)c1ncon1` (configuration not stated) are 3% and -0.39.
For `COc1ccccc1-c1noc(Cc2nc(-c3cccc(Cl)c3)cs2)n1`, in that order: -6% and 0.72.
In the same order, the values of `COC(=O)c1cccc(-c2noc(-c3cnc4c(c3)ncn4C)n2)c1` are -6% and 0.86.
On to `COCCCn1ccc(NC(=O)N[C@@H](C)c2cc3ccccc3o2)n1`, for which the “% Inhibition” value was -9% and the Z score is given as 1.76.
Take `COc1ccccc1OCc1nc(C2(CO)CC2)n(-c2ccncc2)n1`: the “% Inhibition” value is -8% and the Z score came out at 1.52.
For `Cc1ccc(-c2c(CN3CCN(c4ccccc4F)CC3)csc2C)cc1`, in that order: -9% and 1.41.
Consider `CS(=O)(=O)N[C@@H](Cc1ccccc1)c1cccs1`, for which the “% Inhibition” value came out at 31% and the Z score is given as -0.58.
Consider `CN(CC1CCOCC1)C(=O)c1cc(C(F)F)n[nH]1`, for which the “% Inhibition” value was -12% and the Z score is reported as 2.21.
For `O=C(Nc1ccc2nncn2c1)c1ccnn1C1CCCC1`, in that order: -4% and 0.58.
As for `CCOC1CC(N(C)c2cc(C)nc3ncnn23)C1(CC)CC` (configuration not stated), the “% Inhibition” value was 2% and the Z score was -0.38.
For `Cc1cc(C(=O)N2CCC[C@H](n3cccn3)C2)c(C)s1`, in that order: 4% and -0.74.
In the same order, the values of `Cc1ccc(F)cc1CNC(=O)c1ccccc1N1CCC(=O)NC1=O` are 22% and -2.83.
On to `COC(=O)CC1(NCc2cc(F)c(F)c(F)c2)CCCCC1`, for which the “% Inhibition” value is -4% and the Z score came to 0.54.
For `CCCCN(c1ccccc1C(=O)O)S(=O)(=O)c1ccc(OC)c2ccccc12`, in that order: -6% and 0.78.
In the same order, the values of `COc1cc2c(cc1CN1CCC[C@H](N(C)C)CC1)OCO2` are -10% and 1.99.
In the same order, the values of `COCc1noc(Cn2ncc3ccccc32)n1` are -5% and 0.77.
Regarding `O=C1NC2(CCCCCC2)N=C1c1ccc(Cl)c(Cl)c1`, the “% Inhibition” value came out at 1% and the Z score is -0.14.
In the same order, the values of `Oc1ccc2ccccc2c1[C@@H]1CCCCN1` are -6% and 0.85.
In the case of `COc1ccc(CNC[C@H]2CCCN(C)C2)cc1OCc1cccnc1`, the “% Inhibition” value is reported as -17% and the Z score is given as 2.04.
As to `CN1CC[C@@]2(CCC1=O)CN(C(=O)c1ccc3c(c1)OCO3)CCN2C`, the “% Inhibition” value is -7% and the Z score is 1.25.
In the same order, the values of `Cc1c(NC(=O)CC[C@@H]2N=C(O)c3ccccc3NC2=O)cnn1C` are -12% and 1.55.
In the case of `CCn1nnc(C)c1CN1CCC(n2c(=O)[nH]c3cccnc32)CC1`, the “% Inhibition” value was -7% and the Z score is reported as 1.04.
For `O=C(NCCNC(=O)c1ccccc1O)Nc1ccccc1N1CCCC1`, the “% Inhibition” value is recorded as -14% and the Z score stood at 1.45.
For `CCOCCCN=C(NCCOC)NCc1ccccc1`, the “% Inhibition” value was -10% and the Z score stood at 0.9.
In the same order, the values of `C[C@@H](CN(C)Cc1ccc(C(=O)O)c(Cl)c1)c1nccs1` are 0% and -0.09.
With `COC(=O)[C@H](Cc1ccncc1)NC(=O)c1cc(C)sn1`, the “% Inhibition” value is reported as -12% and the Z score was determined as 1.65.
Take `O=C(Nc1nncc(-c2ccccc2)n1)N[C@H]1CCCCC12OCCO2`: the “% Inhibition” value stood at 28% and the Z score was -3.22.
In the same order, the values of `Cc1ccc(Br)cc1CC#N` are -2% and 0.32.
As for `Cn1ccc(NC(=O)C(=O)c2ccc(-c3ccccc3)cc2)n1`, the “% Inhibition” value is 34% and the Z score is on record as -1.19.
In the same order, the values of `COc1ccccc1C(=O)Nc1ccc(OC(=O)Cc2c(C)noc2C)cc1` are -5% and 0.61.
With `COc1ccc2c(O)nn(C(=O)CCc3cnn(C)c3)c2c1`, the “% Inhibition” value is -8% and the Z score is given as 0.9.
In the case of `CC(=O)NC[C@H]1CCN(S(=O)(=O)c2ccc(C#N)cc2)C[C@H]1N(C)C`, the “% Inhibition” value is recorded as -5% and the Z score was found to be 0.66.
For `O=C(c1ccc(Cl)s1)N1CCCN(C[C@H]2CCCO2)CC1`, in that order: -1% and 0.08.
`CCn1cc(CNc2ccc(NC(=O)OC(C)(C)C)cc2C)cn1`: the “% Inhibition” value is on record as -20% and the Z score came to 1.92.
On to `Cc1cc2nc(C(=O)N3CCCN(c4ccccc4C)CC3)cc(C)n2n1`, for which the “% Inhibition” value is recorded as -3% and the Z score is listed as 0.39.
Take `CCCCn1nc(CCOC)nc1-c1cc(C)nc(C)n1`: the “% Inhibition” value is -1% and the Z score worked out at 0.18.
In the same order, the values of `CC1CCc2ccccc2C1Nc1ccc2nccnc2n1` (configuration not stated) are 18% and -2.07.
For `CCOc1ccc(CC(=O)N2CCN(c3ccc(=O)n(-c4ccc(Cl)cc4)n3)CC2)cc1OCC`, in that order: 14% and -1.66.
As for `CC1CN(c2ccc3nnnn3n2)CCN1CC(O)c1ccccc1` (configuration not stated), the “% Inhibition” value is listed as 3% and the Z score is given as -0.51.
In the same order, the values of `O=C(Nc1cccc(-c2ccc(=O)[nH]n2)c1)c1cc2cc(F)ccc2o1` are -10% and 1.26.
In the same order, the values of `C[C@@H](Cn1cncn1)n1cnc2cccc(C(F)(F)F)c2c1=O` are -8% and 1.41.
`Fc1ccc(C2=C[C@@H](c3ccc(Cl)cc3)N3N=C(c4ccc(Cl)cc4)NC3=N2)cc1`: the “% Inhibition” value was 96% and the Z score was -14.66.
`CCC[C@H]1CN(c2nnnn2-c2ccccc2)C[C@@H]1NS(C)(=O)=O`: the “% Inhibition” value is on record as 1% and the Z score is given as -0.18.
Take `COCCN(CCOC)C(=O)c1cnn(C)c1`: the “% Inhibition” value was -6% and the Z score amounted to 0.88.
In the case of `O=C(NC12CCCC1C1CCC2C1)NC12CCCC1C1CCC2C1` (configuration not stated), the “% Inhibition” value is -3% and the Z score was 0.54.
Regarding `O=C(NCCC1CC1)NC1CCOC1c1ccc(F)c(F)c1` (configuration not stated), the “% Inhibition” value is -1% and the Z score is on record as 0.14.
In the same order, the values of `O=C(NCc1ccc(N2CCCC2=O)cc1)NCc1cc[nH]n1` are -7% and 1.1.
In the same order, the values of `COc1ccc(CN2CCCN(c3ccccc3C)CC2)cc1CN1CCCC1` are 8% and -1.04.
In the same order, the values of `Cc1c(CN(C)C(=O)NC[C@H]2CC[C@@H](CO)O2)cnn1C` are 14% and -1.72.
As for `O=C(NCC[C@@H]1CCCC[C@@H]1O)NC1CC(F)(F)C1`, the “% Inhibition” value is on record as -7% and the Z score is 0.91.
For `CN1C(=O)CCC(NC(=O)NC[C@]23C[C@H]2COC32CCC2)C1=O` (some centres not stated), the “% Inhibition” value amounted to 0% and the Z score turned out to be 0.03.
In the same order, the values of `C[C@@](O)(c1nc(-c2ccncc2Br)no1)C1CC1` are 9% and -1.09.
Take `CC(C)c1cc(-c2nc(-c3ccccn3)no2)[nH]n1`: the “% Inhibition” value is listed as -11% and the Z score is 1.24.
`O=S(=O)(CC(O)CNC1COC2(CCC2)C1)c1cccs1` (configuration not stated): the “% Inhibition” value was -8% and the Z score is recorded as 1.16.
`CS(=O)(=O)N1CCO[C@@H](Cn2cc(-c3cccc(-n4cccn4)c3)nn2)C1`: the “% Inhibition” value is given as -10% and the Z score is 1.82.
With `Nc1ncccc1CNC(=O)c1coc(COc2ccc(F)cc2Cl)n1`, the “% Inhibition” value is recorded as 1% and the Z score was -0.08.
In the same order, the values of `Cc1nn(CC(N)=O)c(C)c1-c1ccc(C2CCCC2)cc1` are -6% and 1.02.
In the same order, the values of `CC(C)n1ncnc1-c1ccc(C(=O)NCCCn2ccnn2)cc1` are -2% and 0.31.
In the same order, the values of `Cc1cc(OCC(=O)Nc2ccc(N(C)C)cc2)no1` are -5% and 0.49.
As to `COc1ccc(CN2CCC(CNC(=O)c3cncc(F)c3)CC2)c(C)c1C`, the “% Inhibition” value was -14% and the Z score was 1.26.
For `CCCN(CCC)CCN1C(=O)[C@@H]2C(C(=O)Nc3cc(Cl)cc(Cl)c3)[C@@H]3C=C[C@]2(O3)C1C(=O)NC1CCCCC1` (some centres not stated), in that order: 47% and -4.6.
Regarding `N#Cc1cc(F)ccc1NCCN1CCCOCC1`, the “% Inhibition” value turned out to be 7% and the Z score is -0.69.
On to `Cc1nc(C(=O)Nc2cc(Cl)ccc2N2CCCC2=O)c(C)s1`, for which the “% Inhibition” value is 29% and the Z score is reported as -3.34.
